31 molecules from PMC9911399, “Two distinct binding modes provide the RNA-binding protein RbFox with extraordinary sequence specificity” can be followed below.

The chains are these.
B1: CACAGGG (DNA:RNA)
RNA: GGGAGACCGGAAUUCAGAUUGUCCCACAGGGUUAAAUCCCGUCGUAGCCACCA
DNA 1: CAATCTGAATTCCGGTCTCCC
DNA 2: TGGTGGCTACGACGGGATT
B2: GGACUAU (DNA:RNA)
RNA: GGGAGACCGGAAUUCAGAUUGUCCGGACUAUUUAAAUCCCGUCGUAGCCACCA
DNA 1: CAATCTGAATTCCGGTCTCCC
DNA 2: TGGTGGCTACGACGGGATT
B3: UCGCAGC (DNA:RNA)
RNA: B1 RNA with C25U, A26C, C27G, A28C, G29A, G31C
DNA 1: CAATCTGAATTCCGGTCTCCC
DNA 2: TGGTGGCTACGACGGGATT
B4: AAGACCU (DNA:RNA)
RNA: B1 RNA with C25A, C27G, G29C, G30C, G31U
DNA 1: CAATCTGAATTCCGGTCTCCC
DNA 2: TGGTGGCTACGACGGGATT
B5: UAAAGCA (DNA:RNA)
RNA: B1 RNA with C25U, C27A, G30C, G31A
DNA 1: CAATCTGAATTCCGGTCTCCC
DNA 2: TGGTGGCTACGACGGGATT
B6: AGUGUGU (DNA:RNA)
RNA: B2 RNA with G25A, A27U, C28G, A30G
DNA 1: CAATCTGAATTCCGGTCTCCC
DNA 2: TGGTGGCTACGACGGGATT
B7: GCAACUG (DNA:RNA)
RNA: B1 RNA with C25G, A26C, C27A, G29C, G30U
DNA 1: CAATCTGAATTCCGGTCTCCC
DNA 2: TGGTGGCTACGACGGGATT
B8: UACCCAG (DNA:RNA)
RNA: B1 RNA with C25U, A28C, G29C, G30A
DNA 1: CAATCTGAATTCCGGTCTCCC
DNA 2: TGGTGGCTACGACGGGATT
B9: GGGUGUA (DNA:RNA)
RNA: B2 RNA with A27G, C28U, U29G, A30U, U31A
DNA 1: CAATCTGAATTCCGGTCTCCC
DNA 2: TGGTGGCTACGACGGGATT
B10: AUCUAGA (DNA:RNA)
RNA: B1 RNA with C25A, A26U, A28U, G29A, G31A
DNA 1: CAATCTGAATTCCGGTCTCCC
DNA 2: TGGTGGCTACGACGGGATT
B11: GGCCCUC (DNA:RNA)
RNA: B2 RNA with A27C, U29C, A30U, U31C
DNA 1: CAATCTGAATTCCGGTCTCCC
DNA 2: TGGTGGCTACGACGGGATT
B12: AUCUGAU (DNA:RNA)
RNA: B1 RNA with C25A, A26U, A28U, G30A, G31U
DNA 1: CAATCTGAATTCCGGTCTCCC
DNA 2: TGGTGGCTACGACGGGATT
B13: CACACGC (DNA:RNA)
RNA: B1 RNA with G29C, G31C
DNA 1: CAATCTGAATTCCGGTCTCCC
DNA 2: TGGTGGCTACGACGGGATT
B14: CGUCGGG (DNA:RNA)
RNA: B1 RNA with A26G, C27U, A28C
DNA 1: CAATCTGAATTCCGGTCTCCC
DNA 2: TGGTGGCTACGACGGGATT
B15: CAUACUC (DNA:RNA)
RNA: B1 RNA with C27U, G29C, G30U, G31C
DNA 1: CAATCTGAATTCCGGTCTCCC
DNA 2: TGGTGGCTACGACGGGATT
B16: UUUCAGG (DNA:RNA)
RNA: B1 RNA with C25U, A26U, C27U, A28C, G29A
DNA 1: CAATCTGAATTCCGGTCTCCC
DNA 2: TGGTGGCTACGACGGGATT
B17: CGACAAG (DNA:RNA)
RNA: B2 RNA with G25C, U29A, U31G
DNA 1: CAATCTGAATTCCGGTCTCCC
DNA 2: TGGTGGCTACGACGGGATT
B18: GGUAGAG (DNA:RNA)
RNA: B1 RNA with C25G, A26G, C27U, G30A
DNA 1: CAATCTGAATTCCGGTCTCCC
DNA 2: TGGTGGCTACGACGGGATT
B19: AGGGGCC (DNA:RNA)
RNA: B1 RNA with C25A, A26G, C27G, A28G, G30C, G31C
DNA 1: CAATCTGAATTCCGGTCTCCC
DNA 2: TGGTGGCTACGACGGGATT
B20: GCACAGC (DNA:RNA)
RNA: B2 RNA with G26C, U29A, A30G, U31C
DNA 1: CAATCTGAATTCCGGTCTCCC
DNA 2: TGGTGGCTACGACGGGATT
B21: UGACAAG (DNA:RNA)
RNA: B2 RNA with G25U, U29A, U31G
DNA 1: CAATCTGAATTCCGGTCTCCC
DNA 2: TGGTGGCTACGACGGGATT
B22: UCGGACA (DNA:RNA)
RNA: GGGAGACCGGAAUUCAGAUUGUCCUCGGACAUUAAAUCCCGUCGUAGCCACCA
DNA 1: CAATCTGAATTCCGGTCTCCC
DNA 2: TGGTGGCTACGACGGGATT
B23: GCCUGUA (DNA:RNA)
RNA: B1 RNA with C25G, A26C, A28U, G30U, G31A
DNA 1: CAATCTGAATTCCGGTCTCCC
DNA 2: TGGTGGCTACGACGGGATT
B24: CUACUGA (DNA:RNA)
RNA: B2 RNA with G25C, G26U, A30G, U31A
DNA 1: CAATCTGAATTCCGGTCTCCC
DNA 2: TGGTGGCTACGACGGGATT
B25: AAAUCUC (DNA:RNA)
RNA: B1 RNA with C25A, C27A, A28U, G29C, G30U, G31C
DNA 1: CAATCTGAATTCCGGTCTCCC
DNA 2: TGGTGGCTACGACGGGATT
B26: CAAUUGU (DNA:RNA)
RNA: B1 RNA with C27A, A28U, G29U, G31U
DNA 1: CAATCTGAATTCCGGTCTCCC
DNA 2: TGGTGGCTACGACGGGATT
B27: ACGGAGA (DNA:RNA)
RNA: B22 RNA with U25A, C30G
DNA 1: CAATCTGAATTCCGGTCTCCC
DNA 2: TGGTGGCTACGACGGGATT
B28: ACUCACG (DNA:RNA)
RNA: B22 RNA with U25A, G27U, G28C, A31G
DNA 1: CAATCTGAATTCCGGTCTCCC
DNA 2: TGGTGGCTACGACGGGATT
B29: AGAAAAC (DNA:RNA)
RNA: B2 RNA with G25A, C28A, U29A, U31C
DNA 1: CAATCTGAATTCCGGTCTCCC
DNA 2: TGGTGGCTACGACGGGATT
B30: AGCGGCU (DNA:RNA)
RNA: B1 RNA with C25A, A26G, A28G, G30C, G31U
DNA 1: CAATCTGAATTCCGGTCTCCC
DNA 2: TGGTGGCTACGACGGGATT
B31: CCUGCUC (DNA:RNA)
RNA: B22 RNA with U25C, G27U, A29C, C30U, A31C
DNA 1: CAATCTGAATTCCGGTCTCCC
DNA 2: TGGTGGCTACGACGGGATT

Substitutions are numbered along the chain they refer to; changes in the protein carry UniProt numbers. This is one part of the list.

The experiment addresses T1, RBFOX1 RRM RbFoxmut (Fox-RRM*) (Homo sapiens, UniProt Q9NWB1 109-208, R118D;E147R;N151S;E152T).
T1 sequence: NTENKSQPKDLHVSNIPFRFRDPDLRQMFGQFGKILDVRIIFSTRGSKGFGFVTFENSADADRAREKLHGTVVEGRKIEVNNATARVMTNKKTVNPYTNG
Briefly: EMSA; HiTS-Eq, 1 nM pool, 10 min; buffer printed only for the single-RNA assays: 10 mM Tris pH 7.5, 150 mM NaCl, 3.4 mM EDTA, 0.001% NP-40, 30 C. Conditions: tags: His6 N-terminal (pET28a); label: 5' 32P. An outline of the steps:
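These values rest on relative association constants, computed from read-count changes of each RNA species versus the control reaction and normalised to the cognate motif. Reads came from free RNA recovered by 8% native PAGE after purified RbFox RRM (wild type or mutant) at increasing concentrations was equilibrated for 10 min in 50 µL with 1 nM of a 5′-radiolabelled pool with 7 randomized nucleotides and DNA-annealed flanks.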
Take B1: the binding signal is 0.0686 KA relative to UGCAUGU.

Take B2: the binding signal is 0.0847 KA relative to UGCAUGU. Under B3 stands 0.0941 KA relative to UGCAUGU.

For the molecule B4, the binding signal is 0.0678 KA relative to UGCAUGU.

On to B5, for which the binding signal was 0.1 KA relative to UGCAUGU.

Regarding B6, the binding signal was 0.199 KA relative to UGCAUGU. Under B7 stands 0.0599 KA relative to UGCAUGU; under B8, 0.102 KA relative to UGCAUGU; under B9, 0.222 KA relative to UGCAUGU. Under B10 stands 0.103 KA relative to UGCAUGU; under B11, 0.0657 KA relative to UGCAUGU.

With B12, the binding signal is 0.0592 KA relative to UGCAUGU. For the molecule B13, the binding signal was 0.0754 KA relative to UGCAUGU.

With B14, the binding signal was 0.104 KA relative to UGCAUGU. Under B15 stands 0.0699 KA relative to UGCAUGU; under B16, 0.0759 KA relative to UGCAUGU. Next, B17: 0.0779 KA relative to UGCAUGU; B18: 0.0945 KA relative to UGCAUGU. Turning to B19, the binding signal was 0.241 KA relative to UGCAUGU. Next, B20: 0.0832 KA relative to UGCAUGU. Next, B21: 0.0763 KA relative to UGCAUGU. As to B22, the binding signal is 0.0461 KA relative to UGCAUGU. Next, B23: 0.258 KA relative to UGCAUGU; B24: 0.0724 KA relative to UGCAUGU. Under B25 stands 0.0481 KA relative to UGCAUGU; under B26, 0.117 KA relative to UGCAUGU.

On to B27, for which the binding signal is 0.0992 KA relative to UGCAUGU. Next, B28: 0.121 KA relative to UGCAUGU.

For the molecule B29, the binding signal is 0.0897 KA relative to UGCAUGU. As to B30, the binding signal is 0.1 KA relative to UGCAUGU. Next, B31: 0.0784 KA relative to UGCAUGU.
